# Assay results from article PMC4336329 (PLoS ONE, 2015).
# Out of some 310,000 compounds screened, about 2,200 (0.71%) showed an effect of 50% or more. The effect is printed as a negative number. The list shows a part of the results.
# Target: human ether-à-go-go-related gene (hERG) potassium channel (human, UniProt Q12809)
# Assay: primary screen, population patch clamp on CHO cells stably expressing hERG
# Sequence of human ether-à-go-go-related gene (hERG) potassium channel (Q12809 whole entry, looked up): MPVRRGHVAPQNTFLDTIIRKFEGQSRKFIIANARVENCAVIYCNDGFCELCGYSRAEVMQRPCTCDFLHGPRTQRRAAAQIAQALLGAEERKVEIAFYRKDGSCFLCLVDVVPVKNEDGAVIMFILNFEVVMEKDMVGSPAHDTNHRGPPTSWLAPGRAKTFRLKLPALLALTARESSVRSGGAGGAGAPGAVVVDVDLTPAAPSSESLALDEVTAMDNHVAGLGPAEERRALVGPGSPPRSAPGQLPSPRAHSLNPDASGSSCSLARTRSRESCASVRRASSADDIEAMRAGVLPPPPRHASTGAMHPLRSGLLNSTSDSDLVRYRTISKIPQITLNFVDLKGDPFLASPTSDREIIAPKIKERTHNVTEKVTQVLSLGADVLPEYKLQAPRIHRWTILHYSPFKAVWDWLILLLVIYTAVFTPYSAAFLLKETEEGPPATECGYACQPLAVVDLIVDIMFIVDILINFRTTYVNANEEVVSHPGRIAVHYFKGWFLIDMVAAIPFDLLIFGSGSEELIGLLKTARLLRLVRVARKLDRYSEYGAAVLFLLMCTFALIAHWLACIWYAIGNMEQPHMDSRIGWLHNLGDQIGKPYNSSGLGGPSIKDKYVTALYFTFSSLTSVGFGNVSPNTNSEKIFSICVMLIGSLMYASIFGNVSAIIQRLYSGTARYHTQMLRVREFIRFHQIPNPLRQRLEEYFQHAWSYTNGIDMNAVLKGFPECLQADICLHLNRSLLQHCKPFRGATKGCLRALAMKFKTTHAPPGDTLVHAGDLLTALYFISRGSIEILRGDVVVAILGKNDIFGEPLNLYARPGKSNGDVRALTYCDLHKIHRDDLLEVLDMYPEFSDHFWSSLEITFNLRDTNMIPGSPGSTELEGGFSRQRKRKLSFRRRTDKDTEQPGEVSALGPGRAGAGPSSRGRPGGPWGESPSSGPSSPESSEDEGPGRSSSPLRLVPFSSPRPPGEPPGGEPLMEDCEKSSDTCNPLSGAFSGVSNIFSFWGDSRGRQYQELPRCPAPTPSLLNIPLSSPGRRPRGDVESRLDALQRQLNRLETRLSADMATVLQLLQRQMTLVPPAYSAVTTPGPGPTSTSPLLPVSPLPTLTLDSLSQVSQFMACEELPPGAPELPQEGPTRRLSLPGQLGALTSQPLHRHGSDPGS
row,Structure (SMILES),"hERG current change (%, negative = inhibition) at 1uM [%]"
1,Cc1ccc(NC(=O)CS(=O)CC(=O)Nc2cnc3ccccc3c2)cc1Cl (centres unmarked),15.9
2,CN(C)S(=O)(=O)c1ccc2nc(NC(=O)c3cccnc3)sc2c1,6.65
3,Cc1cccc(OCCn2c(CCCO)nc3ccccc32)c1,10.2
4,COCCNC(=O)CSc1ncnc2sc(-c3ccccc3)cc12,12.9
5,CC(C)c1ccc(OCCCCCN2CCOCC2)cc1.O=C(O)C(=O)O,10.2
6,O=C1CCNc2cc3ccccc3cc21,1.01
7,O=C(CCCN1C(=O)/C(=C/c2ccco2)SC1=S)Nc1ccccc1,7.34
8,CC(C)(C)S(=O)(=O)c1ccccc1C(=O)O,2.85
9,Cc1cccc(-n2ncc3c2CCCC3NC(=O)Cc2c(C)noc2C)c1C (centres unmarked),20.1
10,Cc1[nH]n(-c2ccccc2)c(=O)c1C1(C(F)(F)F)C(=O)N(c2ccccc2)C2=C1C(=O)CC(C)(C)C2 (centres unmarked),17.2
11,Cc1c(-c2csc(N)n2)c2ccccc2n1C,12
12,O=C1OC(/C=C/c2ccccc2)=NC/1=C/c1ccco1,-5.83
13,C=CCSc1nc(C)c2cc(C)cc(C)c2n1,13.2
14,CC(C)CNC(=O)COC(=O)CCC(=O)c1ccc(Cl)cc1,-10.5
15,O=C1Nc2ccccc2/C1=C\C(=O)c1ccccc1,13.7
16,Cc1cnc(CNC(=O)c2ccc(OC3CCN(C(=O)C4CC4)CC3)cc2)cn1,19.4
17,CCn1c2c(c(C)cc1=O)C(=O)CC(C)(C)C2,19.1
18,Cc1nc2ncnn2c(C)c1CCC(=O)NCc1ccco1,6.37
19,CCCCC1CCC(C(=O)N2CCOCC2)CC1 (centres unmarked),7.45
20,Clc1ccc(-c2nc(-c3ccncc3)no2)c(Cl)c1,11.9

row,Structure (SMILES),"hERG current change (%, negative = inhibition) at 1uM [%]"
1,CC1(C(=O)O)CCC(C(=O)NC2CCCCC2)C1(C)C (centres unmarked),10.5
2,CC1(C)Cc2c(C#N)c(NCCO)nc(-c3ccco3)c2CO1,9.42
3,O=C(Nc1ccc(Cl)c(S(=O)(=O)Nc2ccccc2Cl)c1)c1cccs1,2.21
4,COc1ccc(C(=O)NNC(=O)CSc2nnc(C(C)C)n2C)cc1,11.1
5,CCOc1ccc(N/C=C/C(=O)c2ccccc2)cc1,12.6
6,COc1cc(C2N(c3ccc(F)cc3)C(=O)C3CCCN32)cc(OC)c1OC (centres unmarked),1.81
7,COCC1CCCCN1C(=O)c1ccc2oc(CCc3ccccc3)nc2c1 (centres unmarked),6.42
8,C=CCN=C1NN=C(c2ccc3c(c2)OCCO3)CS1,15
9,CC1=C(C(=O)Nc2ccccc2)SCCO1,9.63
10,Cc1cc2cc(C)c3nnc(SCC(=O)NCc4ccc5c(c4)OCO5)n3c2cc1C,5.45
11,Cc1c(C(=O)COC(C)(C)C)[nH]c2ccccc12,15.2
12,O=C(Nc1ccncc1)c1ccc2ncsc2c1,5.27
13,CCCn1c(SCN2C(=O)c3ccccc3C2=O)nc2cc(Cl)ccc2c1=O,8.9
14,CCC(C)C(NS(=O)(=O)c1ccc(C)cc1)C(=O)Oc1ccc2c3c(c(=O)oc2c1)CCC3 (centres unmarked),11.3
15,O=C(Cn1nnc2c(cnn2-c2ccc(F)cc2)c1=O)Nc1ccccc1C(F)(F)F,1.13
16,CCOc1ccc(Cl)cc1/C=C1/C(=O)ON=C1C,17.4
17,COc1ccc(/C=C2\SC(=Nc3ccccc3)NC2=O)cc1,14.2
18,COc1cc(/C=N/NC(=O)CSc2n[nH]c(=O)[nH]c2=O)cc(OC)c1O,15.9
19,CCC(=O)N(CC(=O)Nc1sc(C)c(C)c1C(N)=O)C1CCCC1,5.57
20,Cc1ccc(N2C(S)=C(C#N)C(=O)NC2c2ccco2)cc1 (centres unmarked),1.45

row,Structure (SMILES),"hERG current change (%, negative = inhibition) at 1uM [%]"
1,COC(=O)C1=C(c2c(C)noc2C)C[C@@H]2CC[C@H]1N2C(=O)NCCOc1ccccc1,14.2
2,Clc1ccccc1/C=N/Nc1cc(N2CCOCC2)ncn1,16.9
3,COC(=O)CCCN=C1SCCN1Cc1ccccc1,13.7
4,Cc1cc(NS(=O)(=O)c2ccccc2)no1,12
5,COc1ccc(S(=O)(=O)N(C)c2ccc(C(=O)Nc3ccccc3C(=O)N3CCOCC3)cc2)cc1OC,14.6
6,O=C(NCCc1ccccc1)c1nc(CS(=O)(=O)c2ccc(Cl)cc2)no1,13.1
7,CCOC(=O)c1sc(NCCNc2nc(C)c(C(=O)OCC)s2)nc1C,6.51
8,COc1cc(/C(C)=N/NC(=O)C(O)(c2ccccc2)c2ccccc2)ccc1O,-0.201
9,Cc1cccc(Cn2c(C)c(C)c3cc(C(=O)NCCN4CCOCC4)ccc32)c1,9.03
10,CCN(Cc1ccccc1)C(=O)C1CCN(c2ncnc3c2nc2n3CCCCC2)CC1,13.7
11,CCOC(=O)[C@@H]1[C@H]2COc3cc(OC)ccc3[C@@H]2N2C(=O)N(c3cccc(C)c3)C(=O)[C@@]12C,4.15
12,O=S(=O)(Nc1cccc2cccnc12)c1ccccc1,13
13,Cc1ccccc1NC(=O)c1cccc2nc3ccccc3nc12,12.5
14,COc1ccc(NC(=O)CCNC(=O)c2ccco2)cc1Cl,12.7
15,CCN1CCCC1CNC(=O)C(=O)NC(C)c1ccccc1 (centres unmarked),7.78
16,CC(C)C(=O)Nc1nnc(Cc2ccccc2)s1,-12.3
17,Cc1[nH]n2c(=O)cc(C(C)(C)C)nc2c1-c1ccccc1,-2.57
18,CCCOC(=O)/C(=C\C=C\c1ccccc1)NC(=O)c1ccccc1,12.7
19,CCC1c2ccc(C)n2CCN1C(=O)Nc1ccc(F)cc1 (centres unmarked),7.57
